# In PubChem BioAssay AID463173 (ICCB-Longwood Screening Facility, Harvard Medical School, 2010):
# About 1,700 (3.3%) of roughly 52,000 compounds were called active. Cut-off read from the data, not from the text of the source: active = survival mostly below about 52% (no sharp cut-off); inactive = mostly above about 56%. The list shows a part of the results.
# System: Wild type
# Test: growth inhibition of S. aureus wild type versus tarO mutant, primary screen, teichoic acid synthesis inhibitors, RN4220, OD600 (AID 463173)
# Details: S. aureus RN4220 wild type/DeltatarO growth, OD600, 18 h, hits give low values, screened at 18.75 µg/mL (by protocol)
row,SMILES,survival
1,Cc1ccc(-n2nc(C)c3c(C)c(CCC(=O)NC(C)c4ccccc4)c(C)nc32)cc1 (configuration not stated),inactive: 76%
2,COc1ccc(CCNC(=O)CCc2cn(Cc3ccccc3Cl)c3ccccc23)c(OC)c1,inactive: 80%
3,O=C(NCCc1ccc(Cl)cc1)C1CCN(Cc2cc3ccccc3n2Cc2ccccc2)CC1,inactive: 89%
4,COc1cccc(C(=O)Nc2ccc3nc(SCC(=O)N(C)c4ccccc4)sc3c2)c1,inactive: 87%
5,CCOc1ccc(NC(=O)c2c(C)oc3nc(C)nc(N4CCCC4)c23)cc1,inactive: 47%
6,Cc1ccc(CNC(=O)c2ccc(CSc3nc4ccncc4n3Cc3ccc(C)cc3)cc2)cc1,inactive: 125%
7,Cc1cc(C)c(NC(=O)Cn2c(=O)oc3cc(S(=O)(=O)N4CCCCCC4)ccc32)c(C)c1,inactive: 94%
8,COc1ccccc1CCNC(=O)c1cccn1-c1nnc(N2CCCC2)s1,inactive: 74%
9,CCOc1ccc(-c2cc(NC(=O)c3ccccc3)c(C(=O)OC)s2)cc1,inactive: 86%
10,O=C(Nc1ccccc1)c1cccc(N2CCCC2=O)c1,inactive: 110%
11,O=C(CCCOc1ccccc1)NC1CCSC1=O (configuration not stated),inactive: 105%
12,CC1(C)Oc2ccc3ccc(=O)oc3c2-c2cn[nH]c21,inactive: 104%
13,Cc1ccc(Cl)cc1N1CCN(c2ncnc3c2nc2n3CCCC2)CC1,inactive: 75%
14,O=C(CN1CCN(c2ncccn2)CC1)N1CCCC1,inactive: 115%
15,CCCN(C(=O)c1cc(S(=O)(=O)N2CCc3ccccc32)cn1C)c1ccc(OCC)cc1,inactive: 76%
16,CCOC(=O)c1c(C)[nH]c2c1cc(O)c1ccccc12,inactive: 88%
17,NC(=O)c1cc2n(n1)C(C(F)(F)F)CC(c1ccc(Cl)cc1)N2 (configuration not stated),inactive: 116%
18,CCOc1ccc(C2C(C(=O)Nc3ccccc3)=C(C)Nc3nc(-c4ccccc4Cl)nn32)cc1OC (configuration not stated),inactive: 79%
19,Cc1ccccc1NC(=O)C(=O)NCC(c1ccc2c(c1)OCO2)N1CCN(c2ccccc2)CC1 (configuration not stated),inactive: 72%

row,SMILES,survival
1,Cc1ccccc1NC(=O)Cn1cc(S(=O)(=O)c2ccccc2)c(=O)c2ccccc21,inactive: 105%
2,COc1ccc(NC(=O)c2cc3c(-c4ccccc4F)nn(C)c3s2)c(OC)c1,inactive: 38%
3,CCOc1ccc(Nc2cc(C)nc3nncn23)cc1,inactive: 82%
4,CCN1CCN(Cc2c(O)ccc3oc(C)c(C(=O)Nc4cccc(Cl)c4C)c23)CC1,inactive: 94%
5,CCCn1c2ccccc2c2cnn(CC(=O)NCCCN3CCCCC3CC)c(=O)c21 (configuration not stated),inactive: 73%
6,FC(F)(F)c1cccc(N2CCN(c3ncnc4c3nc3n4CCCC3)CC2)c1,inactive: 78%
7,CCC(C)NC(=O)c1cc(Sc2cccc(Cl)c2)nc2ccccc12 (configuration not stated),inactive: 124%
8,Cc1ccc(S(=O)(=O)Cc2ccc(C(=O)N3CCN(c4cccc(Cl)c4)CC3)o2)cc1,inactive: 73%
9,O=C(Cn1c(=O)n(-c2ccc(Cl)cc2)c(=O)c2sc3ccccc3c21)NC1CCCC1,inactive: 91%
10,COCc1c(CSSCc2cnc(C)c(O)c2COC)cnc(C)c1O,inactive: 107%
11,CCOc1ccc(-c2c(C)nn3c(C)c(C(=O)NCCc4ccc(Cl)cc4)cnc23)cc1OCC,inactive: 64%
12,COC(=O)c1ccccc1NC(=O)c1cc2cc(C)ccc2n1C,inactive: 109%
13,O=C(CC1COc2ccccc2O1)NCCc1ccccc1 (configuration not stated),inactive: 107%
14,Cc1ccccc1OCC(=O)Nc1cccc(C(=O)OCc2cc(=O)n3c(C)csc3n2)c1,inactive: 72%
15,Cc1ccc(NC(=O)c2cc(S(=O)(=O)N3CCc4ccccc43)cn2C)c(Cl)c1,inactive: 112%
16,CCc1cccc(NC(=O)C2CCC(CNS(=O)(=O)c3ccc(Br)s3)CC2)c1 (configuration not stated),inactive: 127%
17,Cc1c(-n2c(O)c(C3=c4ccccc4=NC3=O)sc2=O)c(=O)n(-c2ccccc2)n1C,inactive: 90%
18,c1ccc(CN2CCN(c3ncnc4c3cnn4-c3ccccc3)CC2)cc1,inactive: 88%
19,CCc1nc2cccnc2n1-c1ccc(CC(=O)Nc2cccc(C)c2C)cc1,inactive: 71%

row,SMILES,survival
1,CCC1=Nc2cc(C(=O)NCCN(CC)CC)ccc2Sc2ccccc21,inactive: 93%
2,CCc1ccc(-n2nc(CO)c(C(=O)NCCCc3ccccc3)n2)cc1,inactive: 111%
3,Cc1ccc(C)c(S(=O)(=O)c2nnn3c2nc(NC2CCCCC2)c2sccc23)c1,inactive: 65%
4,Cc1ccc(C)c(N2CCN(C(=O)NCc3noc4ccc(C)cc34)CC2)c1,inactive: 65%
5,Cc1ccccc1Cn1c2ccccc2c2cnn(CC(=O)NCc3ccccn3)c(=O)c21,inactive: 87%
6,CCSc1ccccc1C(=O)Nc1ccc(-c2nc3ccccc3s2)c(O)c1,inactive: 51%
7,CCOc1ccc(C(=O)NC2CC(=O)N(c3ccc(C)cc3)C2)cc1OCC (configuration not stated),inactive: 75%
8,CCOC(=O)c1cccc(NC(=O)C2Cc3ccccc3N2C(=O)c2ccccc2)c1 (configuration not stated),inactive: 71%
9,CC1CCN(S(=O)(=O)c2ccc3c(ccn3CCC(=O)NCc3ccccc3F)c2)CC1,active: -6%
10,Cc1ccc(-c2nc(NC(=O)CSc3nc(C)nc4sc5c(c34)CCCC5)ns2)cc1,inactive: 68%
11,Cc1ccc(Nc2nc3ccccc3c3nncn23)c(Cl)c1,inactive: 132%
12,Cc1ccc(C)c(Cn2c(=O)n(C(C)C)c(=O)c3oc4ccccc4c32)c1,inactive: 81%
13,Cc1ccccc1CNC(=O)CN1C(=O)C2CCCCN2c2ccc(C(=O)N3CCCC3)cc21 (configuration not stated),inactive: 71%
14,CCc1nn(CC(=O)N2CCCCC2)c(=O)c2cc3sc(C)cc3n12,inactive: 88%
15,Cc1ccccc1NC(=O)CCS(=O)(=O)c1cc(Br)cc2c1N(C(=O)C1CC1)CC2,inactive: 85%
16,Cc1sc2c(c1C)c(=O)n(Cc1ccccc1)c(=O)n2Cc1ccc(F)cc1,inactive: 96%
17,CCN(CC)CCCn1c(N)c(-c2nc3ccccc3[nH]2)c2nc(C#N)c(C#N)nc21,inactive: 110%
18,Cc1cccc(-n2ncc3c(Nc4ccc(C)c(Cl)c4)ncnc32)c1,inactive: 146%
19,COc1ccc(NC(=O)c2c(-c3ccccc3)c(-c3ccccc3)nn(C)c2=O)cc1OC,inactive: 80%
